Experimental data published in PubChem BioAssay AID1346428 (National Center for Advancing Translational Sciences (NCATS), 2018).
In all, about 48,000 compounds went through this assay and about 1,200 (2.5%) were called active. About 2% were inconclusive and are not listed.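 Rule for the calls: active = activation of at least 60% and not above a set upper limit (about 1 call in 100 departs from these limits); inconclusive = activation of 40% to 60%, or above that upper limit; inactive = activation under 40%.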 The list shows a part of the results.

What follows are compounds tested against Probable G-protein coupled receptor 32 (Homo sapiens) (UniProt O75388) (assay: qHTS for Agonists of Human Resolvin D1 Receptor DRV1). Conditions: CHO-K1 GPR32 beta-arrestin PathHunter luminescence, 90 min; at 76.9 µM; hits give high values; zero percent set by DMSO-only wells.
Method in brief: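 GPR32 activation in stably transfected CHO-K1 cells, detected as beta-arrestin recruitment by enzyme-fragment complementation. Compound exposure: 90 min, 37 °C.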
Note: 0% is about no effect.

Chain of UniProt O75388 (O75388 whole entry, looked up, the tested form may be a part): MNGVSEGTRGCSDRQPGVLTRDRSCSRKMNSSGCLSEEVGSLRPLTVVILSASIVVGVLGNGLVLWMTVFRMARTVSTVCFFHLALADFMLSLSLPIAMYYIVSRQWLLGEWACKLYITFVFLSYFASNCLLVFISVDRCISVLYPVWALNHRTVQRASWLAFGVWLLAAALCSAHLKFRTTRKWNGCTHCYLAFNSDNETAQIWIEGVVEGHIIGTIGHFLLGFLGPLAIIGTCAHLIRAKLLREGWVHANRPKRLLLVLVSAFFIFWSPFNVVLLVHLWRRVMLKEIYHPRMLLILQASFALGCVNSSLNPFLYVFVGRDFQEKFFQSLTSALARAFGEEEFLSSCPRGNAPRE

activation, inactive:
O=C(COc1ccccc1)Nc1nnc(S(=O)(=O)N2CCCCCC2)s1 9.31%
Cc1nn(CC(=O)NCCc2ccccc2Cl)c(=O)c2nn(-c3ccccc3)c(C)c12 -21.2%
O=S(=O)(c1ccccc1)N1CCC(c2ccncc2)CC1 7.71%
O=C1COc2cc(S(=O)(=O)CCC(=O)N3CCN(c4cccc(Cl)c4)CC3)c(Cl)cc2N1 27.2%
CCC(C)NC(=O)c1sc2nc(C)c(C(=O)Nc3ccc(C)cc3C)c(-c3ccc(Cl)cc3)c2c1N (configuration not stated) -20.6%
CCOc1ccc(CNC(=O)Cn2nc(C)c3nn(-c4ccc(Cl)cc4)c(C)c3c2=O)cc1OC -7.96%
Cc1ccc2c(c1)c1c(c(=O)n(-c3ccccc3C)c(=O)n1CC(=O)NCCC1=CCCCC1)n2C -22.8%
CC(=O)c1cc(-c2ccc(F)cc2)n(CCC(=O)Nc2nc3c(C)cccc3s2)c1C -14.6%
c1ccc2c(CC3=NCCN3)cccc2c1 -18.3%
COc1ccc(CNCc2c(C(=O)O)c(C)n(Cc3ccc(Cl)cc3)c2C)c(OC)c1 -12.4%
CC(=O)OCC(=O)[C@@]12OC(C)(C)O[C@@H]1C[C@H]1[C@@H]3C[C@H](F)C4=CC(=O)C=C[C@]4(C)[C@@]3(F)[C@@H](O)C[C@@]12C 5.44%
Cc1ccc(Cc2nc3ccccc3nc2SCC(=O)Nc2cccc(C(F)(F)F)c2)cc1 -2.6%
Cc1ccc(-c2cc(C(=O)Nc3c(C(=O)c4ccccc4)oc4ccccc34)no2)cc1F 14.3%
Cc1ccc(-n2ncc3c(NC4CCCCC4)ncnc32)cc1 21.9%
O=C(CN1CCSc2ccccc21)N1CCN(c2cccc(Cl)c2)CC1 -7.47%
COC(=O)c1cnn(-c2ccc(C(=O)Nc3ccc(C(C)=O)cc3)cc2)c1N 6.01%
Cc1ccc(CNS(=O)(=O)c2c(C)nc3scc(C)n3c2=O)cc1 -11.1%
CC(C)(C)c1ccc(S(=O)(=O)NCc2nc3cccnc3n2Cc2ccccc2Cl)cc1 -38.4%
COc1ccc(-n2c(=O)c3sc4ccccc4c3n(CC(=O)Nc3cccc(C)c3)c2=O)cc1 -12.1%
Cc1ccc(-c2nnc(Nc3ccc(Br)cc3)c3ccccc23)cc1S(=O)(=O)N1CCOCC1 -12.3%
COCCNC(=O)Cn1cc(S(=O)(=O)Cc2ccccc2Cl)c2ccccc21 -6.38%
CCOC(=O)N1CCc2c(sc3c2c(=O)n(CCc2ccccc2)c(=O)n3Cc2cc(C)ccc2C)C1 -3.04%
CC1=C(C(=O)Nc2ccccc2C)C(c2cccnc2)n2nc(SCc3ccccc3)nc2N1 (configuration not stated) -12.5%
COc1ccccc1NC(=O)c1cc(S(=O)(=O)N(C)C2CCCCC2)ccc1F -11.6%
COc1cc(C=C2CCC/C(=C\c3ccc(O)c(OC)c3)C2=O)ccc1O -44.1%
Cc1ccc(NC(=O)C(Cc2ccccc2)NS(=O)(=O)c2ccc3c(c2)oc(=O)n3C)c(Cl)c1 (configuration not stated) 0.48%
COc1ccccc1NC(=O)C1=C(C)Nc2nc(SCc3ccccc3)nn2C1c1ccccn1 (configuration not stated) -4.54%
CCOc1ccccc1NC(=O)c1cn(C2CCCC2)c(=O)c2c1c1ccccc1n2C -14.6%
CCN(CC)S(=O)(=O)c1ccc2c(c1)N(CC(=O)NCCc1ccc(OC)c(OC)c1)C(=O)CO2 -17.3%
O=C(CCC(=O)N1CC2CCCN2c2ccccc21)NCc1ccccc1Cl (configuration not stated) -31.4%
COc1ccc(-c2cc(=O)n3[nH]cnc3n2)cc1 -1.66%
COc1ccc(C(=O)Nc2ccccc2C(=O)OCc2cc(=O)n3c4c(sc3n2)CCCC4)cc1 -13.2%
COc1cc(OC)c(Nc2nc3ccc(C)cc3n3nnnc23)cc1Cl -9.57%
Cc1nnc(NC(=O)CSc2nccn2-c2cccc(Cl)c2)s1 -16.6%
CC1CCCN(S(=O)(=O)c2cc3c(cc2Cl)NC(=O)CO3)C1 (configuration not stated) -7.8%
Cc1nc2c(c(C)c1CCC(=O)Nc1cccc(C(F)(F)F)c1)c(=O)n(C)c(=O)n2C -9.16%
COC(=O)c1c(NC(=O)c2cccc(OC)c2)sc2c1CCC(C(C)(C)C)C2 (configuration not stated) -1.37%
COc1ccccc1CNc1nc2nc(C)c(Cl)c(C)n2n1 3.69%
COCCCNC(=O)c1ccc2c(c1)N=C(C)c1c(C)ccc(C)c1S2 17.9%
Cc1cccc(-c2nc(SCC(=O)Nc3cc(C)on3)c3c(=O)n(C)c(=O)n(C)c3n2)c1 -22.9%
COc1ccc(N2CCN(c3ccc(-c4nc(-c5ccccc5C)no4)cc3[N+](=O)[O-])CC2)cc1 9.48%
Cc1ccc(NC(=O)N2CCC(N3CCN(Cc4ccccc4)C(=O)C3=O)CC2)cc1Cl -8.27%
COc1cccc(NC(=O)c2sc3nc(N4CCOCC4)c4c(c3c2N)CC(C)(C)OC4)c1 -6.25%
Cc1cccc(NC(=O)NCCn2c(=O)oc3ccc(C)cc32)c1 -17.4%
COc1cc(NC(=O)C(CC(C)C)NS(=O)(=O)c2ccc3c(c2)CCCC(=O)N3)cc(OC)c1 (configuration not stated) -5.23%
CCOC(=O)Cn1c(=O)n(CC2CCCO2)c2nc(-c3ccc(OC)cc3OC)nc(C(N)=O)c21 (configuration not stated) -5.4%
Cc1ccc(CNC(=O)CCCn2c(=O)c3ccccc3n(CC(=O)C(C)(C)C)c2=O)cc1 7.35%
Cc1oc2c(c1C(=O)NCc1cccc(Br)c1)C1=NCCN1C=N2 -19.7%
CCOc1ccc(NC(=O)Cn2c(=O)n(-c3ccc(C)cc3)c(=O)c3cc(OC)c(OC)cc32)cc1 1.67%
COc1ccc(CNC(=O)c2cc3c(-c4ccccc4F)nn(C)c3s2)c(OC)c1 -18%
COc1ccccc1N1CCN(C(=O)C2CCN(S(=O)(=O)c3cnc[nH]3)CC2)CC1 7.86%
COc1ccc2oc(=O)c(-c3csc(/C(C#N)=C/c4ccc(F)cc4)n3)cc2c1 -19.9%
COc1ccc(CNC(=O)CN(c2ccc(C)cc2)S(=O)(=O)c2c(C)n[nH]c2C)cc1 -2.41%
COc1cc(C)c(Cl)cc1S(=O)(=O)NCCc1c(C)[nH]c2ccccc12 22.9%
Cc1ccc(C)c(CN2C(=O)c3ccccc3S(=O)c3ccc(C(=O)NCc4ccccc4Cl)cc32)c1 (configuration not stated) -4.15%
COc1cccc(CNC(=O)CN2C(=O)N(c3cc(C)ccc3C)S(=O)(=O)c3ccccc32)c1OC -11.2%
CCOC(=O)c1c(NC(C)=O)c2c3c(sc2n1Cc1nc(-c2ccccc2OCC)oc1C)CCCC3 -31.4%
COc1cccc(NC(=O)Cn2cc(C(=O)C3CCCCC3)c3ccccc32)c1 -5.02%
Cc1ccc(C)c(N2CCN(C(=O)c3cnc4c(-c5ccccc5)c(C)nn4c3C)CC2)c1 -36.1%
CCN1CCC(N(Cc2cccc(OC)c2)C(=O)Nc2cccc(C(F)(F)F)c2)CC1 1.16%
CCN(CC)c1ccc(C(=O)NCc2ccc3c(c2)CCN3C(=O)c2ccccc2)cc1 -8.37%
CCOC(=O)c1c(NC(=O)c2cc(CC)on2)sc(C)c1C 7.48%
O=C(Nc1ccc(-c2cc(C(F)(F)F)nn2-c2ccccc2)cc1)c1cccc(F)c1 4.64%
Cc1ccc2c(c1)N(C(=O)CCC(=O)Nc1ccccc1Cl)CC(C)O2 (configuration not stated) -13%
O=c1cc(CSc2ncn[nH]2)[nH]c2c(Cl)cccc12 -9.89%
Brc1ccccc1-n1ncc2c1ncn1nc(Cc3ccccc3)nc21 -20.8%
CCOC(=O)c1c(C)[nH]c(C)c1S(=O)(=O)NCC(=O)Nc1cccc(C(F)(F)F)c1 11.2%
O=C(CSc1nnc(NC(=O)NC2CCCCC2)s1)Nc1ccccc1F -4.03%
COc1ccc(OC)c(Nc2nc(-c3ccc(C)cc3)nc3ccccc23)c1 -18.9%
CC1CCCN(C(=O)Cn2c(=O)oc3cc(S(=O)(=O)N4CCCCC4)ccc32)C1 (configuration not stated) -2.85%
CCOc1ccc(C2c3c(-c4ccc(C)cc4)n[nH]c3C(=O)N2c2ccc(Cl)cc2)cc1 (configuration not stated) -2.07%
COc1ccccc1CNC(=O)CS(=O)(=O)c1cccc2nsnc12 28.3%
COc1cc(C(=O)NCC(c2ccc(N(C)C)cc2)N2CCc3ccccc32)cc(OC)c1OC (configuration not stated) -29.6%
Cc1ccc(-c2nc3n(n2)C(c2ccccc2C)C=C(c2ccc(Cl)cc2)N3)cc1 (configuration not stated) -3.9%
COc1ccc(-c2oc3ncn4nc(-c5cccc(C)c5)nc4c3c2-c2ccc(OC)cc2)cc1 -8.23%
Cc1ccc(CN2C(=O)c3ccccc3Sc3ccc(C(=O)NC4CCCCC4)cc32)cc1 -0.288%
COc1cc(C(=O)Nc2nnc(S(=O)(=O)N(C)c3ccccc3)s2)cc(OC)c1OC -12.4%
COc1ccc(OC)c(NC(=O)CCn2cnnn2)c1 5.28%
COc1ccc(CCNC(=O)c2cc(-c3ccc(C)cc3)nc3n[nH]c(-c4ccccc4)c23)cc1OC -7.91%

activation, active:
O=c1onc2cnc3ccccc3n12 67.6%
Cc1ccc(/C=C(\C#N)C(=O)Nc2cc(C)ccc2C)cc1 98.1%
O=C(CC1N=C2c3ccccc3N=C(SCc3ccc(Cl)cc3)N2C1=O)NCCc1ccccc1 (configuration not stated) 73.8%
